Measured values as given in publication PMC4336329 (PLoS ONE, 2015).
About 2,200 (0.71%) of roughly 310,000 compounds showed an effect of 50% or more. The effect is printed as a negative number. The list shows a part of the results.

Target: human ether-à-go-go-related gene (hERG) potassium channel (human, UniProt Q12809)
Experiment: primary screen, population patch clamp on CHO cells stably expressing hERG

Chain of human ether-à-go-go-related gene (hERG) potassium channel (Q12809 whole entry, looked up): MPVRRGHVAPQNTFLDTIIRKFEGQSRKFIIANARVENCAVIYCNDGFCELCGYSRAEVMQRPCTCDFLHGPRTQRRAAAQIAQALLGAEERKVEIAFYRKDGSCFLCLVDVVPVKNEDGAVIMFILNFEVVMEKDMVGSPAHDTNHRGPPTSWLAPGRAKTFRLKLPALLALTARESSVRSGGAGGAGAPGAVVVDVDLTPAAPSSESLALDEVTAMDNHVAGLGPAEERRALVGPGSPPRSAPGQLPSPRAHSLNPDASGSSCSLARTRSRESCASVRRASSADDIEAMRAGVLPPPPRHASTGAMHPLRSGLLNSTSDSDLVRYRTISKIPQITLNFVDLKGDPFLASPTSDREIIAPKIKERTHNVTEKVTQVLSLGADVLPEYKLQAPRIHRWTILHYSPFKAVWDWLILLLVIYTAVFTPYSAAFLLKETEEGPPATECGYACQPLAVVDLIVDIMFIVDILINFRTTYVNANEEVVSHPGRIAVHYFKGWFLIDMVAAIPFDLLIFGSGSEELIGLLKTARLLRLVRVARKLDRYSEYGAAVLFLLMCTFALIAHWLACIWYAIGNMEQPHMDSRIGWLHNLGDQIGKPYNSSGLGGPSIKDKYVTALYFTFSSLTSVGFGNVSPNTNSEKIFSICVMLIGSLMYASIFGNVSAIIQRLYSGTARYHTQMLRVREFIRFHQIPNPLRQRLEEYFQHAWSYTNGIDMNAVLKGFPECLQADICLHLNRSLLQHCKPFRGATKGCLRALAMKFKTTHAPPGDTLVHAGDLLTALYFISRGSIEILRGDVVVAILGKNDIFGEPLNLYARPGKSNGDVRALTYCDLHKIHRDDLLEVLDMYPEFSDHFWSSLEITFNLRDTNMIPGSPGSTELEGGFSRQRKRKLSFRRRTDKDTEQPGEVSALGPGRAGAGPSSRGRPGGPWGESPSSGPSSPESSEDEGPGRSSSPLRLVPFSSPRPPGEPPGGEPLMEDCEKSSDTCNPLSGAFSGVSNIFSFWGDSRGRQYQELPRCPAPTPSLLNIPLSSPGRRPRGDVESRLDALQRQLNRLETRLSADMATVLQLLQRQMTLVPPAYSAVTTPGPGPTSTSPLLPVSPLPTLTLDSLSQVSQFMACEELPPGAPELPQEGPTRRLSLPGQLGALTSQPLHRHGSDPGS

Compound | hERG current change (%, negative = inhibition) at 1uM
Cc1cc(S(=O)(=O)Nc2cccnc2)c(Cl)cc1Cl | 5.14%
Cc1c(NC(=O)Cn2[nH]c(=O)c3ccccc3c2=O)c(=O)n(-c2ccccc2)n1C | 8.84%
CC(=O)Nc1ccc(S(=O)(=O)Nc2nc3ccccc3nc2Nc2cccc(S(N)(=O)=O)c2)cc1 | 11.9%
O=C(c1ccc2c(Cl)c3c(nc2c1)CCCC3)N1CCN(c2ccc(F)cc2)CC1 | 16.7%
CO/N=C/NC(=O)c1c(OC)ccnc1Oc1ccc(F)cc1 | 7.74%
CCc1cc2cccc(C)c2nc1SCC(=O)c1ccc(NC(C)=O)cc1 | 1.18%
Cc1ccc2oc(=O)n(Cc3ccccc3OC(C)C)c2c1 | 9.37%
COc1ccc(NC(=O)N(CCC(C)C)C(C)c2ccccn2)c(OC)c1 (centres unmarked) | 8.17%
COc1cccc(S(=O)(=O)NC2CCN(C#N)C2)c1 (centres unmarked) | 11%
O=C(Nc1ccc(Br)cc1)c1cnc[nH]1 | 10.3%
Cc1ccc(NC(=O)CCn2c(=S)oc3ccccc32)cc1F | 16.7%
C=CC[C@H]1CC(Cc2ccccc2)=C[C@H](CC=C)N1.Cl | 6.17%
O=C(CCC(=O)N(Cc1ccco1)C(C(=O)NC1CCCC1)c1ccncc1)Nc1cccnc1 (centres unmarked) | 3.43%
CCc1nnc(NC(=O)C2CCCO2)s1 (centres unmarked) | 12.5%
O=C(Nc1ncc(Cc2cccc(C(F)(F)F)c2)s1)C1CCCO1 (centres unmarked) | 3.93%
COc1ccc(N2C(=O)CSC2c2ccc(F)cc2)cc1 (centres unmarked) | 13.3%
CCO[C@@H]1OC(C(=O)N2CCOCC2)=C[C@H](c2ccccc2)[C@H]1CCCO | 20.8%
COc1ccc(/C=N/N=C/c2ccc(OC)c(OC)c2)cc1OC | 9.92%
CC1=NN(C(N)=S)C(=O)C1N=Nc1c(Br)cc(Br)cc1Br (centres unmarked) | 26.2%
O=C(O)C(=O)O.OC(Cn1cnnc1)c1ccccc1 (centres unmarked) | 9.15%

Compound | hERG current change (%, negative = inhibition) at 1uM
N#Cc1ccc(/C=C/C(=O)c2ccc3c(c2)OCO3)cc1 | 12.3%
CCN(CC)C(=O)c1ccc(COc2ccccc2Cl)o1 | 8.39%
Cc1sc(NC(=O)COc2ccccc2)c(C#N)c1-c1ccccc1 | 10.8%
Cc1cccc(CN2CCCC(C(=O)Nc3ccc(-c4cscn4)cc3)C2)c1 (centres unmarked) | -3.59%
COc1ccccc1CNC(=O)CSc1ccc(-c2cccs2)nn1 | 7.71%
Cc1c(N=Cc2ccc[nH]2)c(=O)n(-c2ccccc2)n1C | 14.4%
CC(C)CNC(=O)c1cccc(NC(=O)c2ccc(Cl)c([N+](=O)[O-])c2)c1 | 3.79%
S=C(Nc1ccc(Cl)cc1)NC1CCCCC1 | 8.29%
COc1ccccc1C(=O)N/C(=C/c1ccccc1)C(=O)Nc1ccc(C(=O)O)cc1 | 16.7%
CCCc1c(C(=O)N/N=C/c2ccccc2C(F)(F)F)nnn1-c1nonc1N | 11%
NS(=O)(=O)c1ccc(CCNC(=O)CSc2nc3ccccc3c(=O)n2CCC(=O)N2CCCCC2)cc1 | 5.72%
O=S(=O)(NCCc1ccccc1)c1cccc2cccnc12 | 12.1%
COc1ccccc1-c1cc(N)n(S(=O)(=O)c2ccc(F)c(C)c2)n1 | 8.32%
CCCCCCc1cc2cc(/C(N)=N/NC(=O)c3ccncc3)c(=O)oc2cc1O | 13.4%
CNS(=O)(=O)c1cnccc1N1CCN(c2cccc(C(F)(F)F)c2)CC1 | 3.11%
N#Cc1ccc(OCc2nnc3n2CCCCC3)cc1 | 1.92%
Cc1ccc(N(C(=O)CC2NC(=O)NC2=O)C2(C(=O)NC3CCCC3)CCCCC2)cc1 (centres unmarked) | 11.7%
O=C(COC(=O)CCSc1ccccc1Cl)Nc1ccc(F)cc1F | 9.39%
CN(C)C(=O)c1cc(-c2ccccc2)no1 | 18.9%
Cc1ccc(N(C)C(=O)CC(C)S(=O)(=O)c2ccc3c(c2)NC(=O)CO3)cc1 (centres unmarked) | 1.63%

Compound | hERG current change (%, negative = inhibition) at 1uM
Cc1cccc(C)c1-n1nnnc1C1(Nc2ccccc2)CCCCC1 | 2.95%
COc1ccc(Nc2ncnc3c2cnn3Cc2ccccc2)cc1 | 3.65%
CC(C)CCn1c(C(C)O)nc2ccccc21 (centres unmarked) | 8.07%
CCOc1ccc(NC(=O)C2CCN(S(=O)(=O)CC)CC2)cc1 | 11.9%
Cc1ccccc1NS(=O)(=O)c1cc(OCC(N)=O)c(C)cc1Cl | 8.43%
Cc1ccccc1CC1(CO)CCCN(C(=O)CCN2CCCO2)C1 (centres unmarked) | 15.6%
CCC(=O)N(CC)Cc1cc(=O)[nH]c2ccccc12 | -1.15%
O=C(NC(=S)NCCO)c1sc2ccccc2c1Cl | 7.91%
COc1cnc(-c2ccccn2)nc1Oc1cccc(C(F)(F)F)c1 | 10.4%
COc1cc(CNc2ccc(N3CCCC3)cc2)cc(Cl)c1OC | 2.12%
CCOC(=O)C(NC(=O)c1ccccc1)=C1C=C(C)OC(C)=C1 | 16.3%
C=CCn1c(O)c(N=O)c2ccccc21 | 8.22%
O=C(COC(=O)c1cccc(-n2cnnn2)c1)c1ccc(Br)cc1 | 21.7%
COCc1cc(C)nc2sc3c(=O)oc(C)nc3c12 | 5.86%
CCOc1cc(C(=O)Nc2cccnc2)cc(OCC)c1OCC | 8.43%
Cn1cc(CCC(=O)N2CCCC(CCC(=O)NCc3ccccc3F)C2)cn1 (centres unmarked) | 12.2%
Cc1cc(C)cc(NC(=O)c2cc(Cl)sc2Cl)c1 | 15.7%
Cc1cc(C)c(-c2noc(C(=O)OC(C)(C)C)c2C(=O)OC(C)(C)C)c(C)c1 | 5.95%
Cc1ccc(CNC(=O)C2(NC(=O)Nc3ccc(C)cc3)CCCCC2)cc1 | 16.7%
